Measurements taken from publication PMC4336329 (PLoS ONE, 2015).
The whole screen tested about 310,000 compounds, of which about 2,200 (0.71%) showed an effect of 50% or more. Effects have a minus sign here. This is one part of the list.

These compounds were tested against human ether-à-go-go-related gene (hERG) potassium channel (human, UniProt Q12809) (assay: primary screen, population patch clamp on CHO cells stably expressing hERG).
human ether-à-go-go-related gene (hERG) potassium channel, sequence (Q12809 whole entry, looked up): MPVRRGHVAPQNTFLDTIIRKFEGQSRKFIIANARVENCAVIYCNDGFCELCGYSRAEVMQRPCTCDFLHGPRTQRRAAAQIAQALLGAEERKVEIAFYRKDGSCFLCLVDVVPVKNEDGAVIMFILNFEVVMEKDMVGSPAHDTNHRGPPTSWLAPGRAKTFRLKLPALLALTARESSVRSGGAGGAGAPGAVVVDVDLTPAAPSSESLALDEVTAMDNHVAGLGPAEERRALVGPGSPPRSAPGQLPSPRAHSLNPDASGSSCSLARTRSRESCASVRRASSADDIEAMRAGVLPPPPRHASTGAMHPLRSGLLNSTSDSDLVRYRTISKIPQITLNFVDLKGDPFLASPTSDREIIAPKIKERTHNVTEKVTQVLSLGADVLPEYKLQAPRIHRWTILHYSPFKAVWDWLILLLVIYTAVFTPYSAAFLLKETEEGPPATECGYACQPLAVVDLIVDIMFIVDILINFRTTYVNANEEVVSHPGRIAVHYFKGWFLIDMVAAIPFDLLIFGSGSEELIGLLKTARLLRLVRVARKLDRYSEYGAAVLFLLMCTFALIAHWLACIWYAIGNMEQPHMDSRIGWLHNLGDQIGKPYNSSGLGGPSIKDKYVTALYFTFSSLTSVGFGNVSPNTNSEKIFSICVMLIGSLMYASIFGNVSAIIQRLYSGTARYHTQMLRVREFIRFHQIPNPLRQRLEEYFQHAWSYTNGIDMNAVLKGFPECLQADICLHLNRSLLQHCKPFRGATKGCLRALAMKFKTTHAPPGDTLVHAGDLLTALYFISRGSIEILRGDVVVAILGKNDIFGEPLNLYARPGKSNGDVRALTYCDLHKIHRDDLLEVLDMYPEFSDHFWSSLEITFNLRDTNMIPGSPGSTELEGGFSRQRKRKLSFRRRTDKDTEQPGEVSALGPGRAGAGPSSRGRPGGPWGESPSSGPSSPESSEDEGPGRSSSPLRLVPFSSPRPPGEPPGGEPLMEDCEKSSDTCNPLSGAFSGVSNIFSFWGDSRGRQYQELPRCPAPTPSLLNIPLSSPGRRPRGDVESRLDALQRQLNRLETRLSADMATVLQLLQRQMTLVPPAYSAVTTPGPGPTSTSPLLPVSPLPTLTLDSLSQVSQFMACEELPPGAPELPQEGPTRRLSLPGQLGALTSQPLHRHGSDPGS

SMILES	hERG current change (%, negative = inhibition) at 1uM
CCC(C(=O)OCC(=O)Nc1c(C)nn(-c2ccccc2)c1C)c1ccccc1 (stereo not shown)	3.56%
O=C(Nc1ccc(N2CCN(C(=O)c3cccs3)CC2)cc1)c1cccnc1	10.5%
COc1ccc(N2C(=O)CN=C2Nc2nc(C)cc(C)n2)cc1OC	-7.93%
Cc1oc2c(C)c3oc(=O)c(CC(=O)N[C@@H](CCCNC(N)=O)C(=O)O)c(C)c3cc2c1C	11%
Cc1cc(C)c(C)c(OCCCCn2cnc3ccccc3c2=O)c1	5.31%
Cc1ccc2c(Cl)cc(Cl)c(OCC(=O)Nc3cc(S(=O)(=O)N(C)C)ccc3C)c2n1	15.1%
O=C1NC(Cc2c[nH]c3ccccc23)C(=O)N1CCOc1ccc(F)cc1 (stereo not shown)	4.9%
COc1ccccc1C1C(C#N)=C(N)Oc2cc(C)n(CCCn3ccnc3)c(=O)c21 (stereo not shown)	9.78%
O=C(CSc1c2c(nc3ccc(Cl)cc13)CCCC2)NCc1ccco1	-6.82%
Cn1c(Cl)nc2ccccc21	1.57%
COc1ccc([N+](=O)[O-])cc1NC(=O)C(C)OC(=O)/C=C/c1ccco1 (stereo not shown)	0.263%
CC(=O)Nc1ccccc1C(=O)C(=O)Nc1cccc(Br)c1	5.75%
COc1nc(N/N=C/c2cc3c(cc2Br)OCO3)nc(N2CCOCC2)n1	2.27%
C=CCn1c(SCC(=O)c2[nH]c(C)c(C(=O)OCC)c2C)nc2scc(-c3ccc(OC)c(OC)c3)c2c1=O	19.1%
Cc1ccc(C(=O)Nc2sc3c(c2C(=O)O)CCCC3)o1	3.28%
COc1ccccc1C(=O)NCCC(=O)Nc1ccc(OC(F)(F)F)cc1	16.2%
CC1(C)C(=O)Nc2ccccc2N1C(=O)COc1ncnc2c(Cl)cc(Cl)cc12	3.26%
C/C(CC(=O)Nc1ccccn1)=N\NC(=O)c1ccccc1	6.72%
Cc1ccc2nc(/C(C#N)=C\c3ccc(N4CCOCC4)o3)[nH]c2c1	0.139%
CC(=O)c1cccc(NS(C)(=O)=O)c1	3.77%
Cc1ccc(NNC(=O)c2c(F)cccc2Cl)cc1Cl	9.42%
CCCCOc1ccc(-c2cn3ccccc3n2)cc1[N+](=O)[O-]	23%

SMILES	hERG current change (%, negative = inhibition) at 1uM
CCN(CC)CCN(C)c1ccc(N2C(=O)C3CC=CCC3C2=O)cc1[N+](=O)[O-] (stereo not shown)	11.5%
Cc1ccc(C)c(S(=O)(=O)N/N=C/c2ccc(C(=O)O)cc2)c1	4.42%
OC1O[C@H](c2ccc3c(c2)OCO3)[C@H]2CO[C@H](c3ccc4c(c3)OCO4)[C@@H]12 (stereo partly shown)	3.63%
O=C(OCc1c(Cl)cccc1Cl)c1ccncc1	2.93%
O=C(O)c1ccc(N/N=C/c2cc3c(cc2[N+](=O)[O-])OCO3)cc1	17.6%
Cc1c(Cl)cccc1NCC(=O)Nc1ccc(Cl)cc1F	9.25%
COc1ccc(-c2nn(-c3ccccc3)cc2C(=O)NCCCn2ccnc2)cc1	-3.1%
O=C(c1ccc(-c2ccccc2)cc1)N1CCC(C(=O)N2CCCC2)CC1	-0.047%
Cc1cc2nc(CO)[nH]c2cc1C	13.6%
COCCOc1nc2ccccc2nc1C	6.8%
CN1CCN(S(=O)(=O)c2ccc(Oc3cccc(C(F)(F)F)c3)nc2)CC1	2.12%
CCCc1cc(=O)n2[nH]c(CCc3ccccc3)nc2n1	15.2%
Clc1ccc(-c2n[nH]c3c2CCCC3)cc1	-5.7%
CC(=O)NC1C(=O)N=C(SCC(=O)NC2CCCCC2)NC1=O (stereo not shown)	9.5%
Cc1ccc(-c2nnc(N)s2)cc1	14.4%
COc1cccc2[nH]c(C(=O)NC(C)c3ccccc3)cc12 (stereo not shown)	6.92%
O=C(CSc1nc2ccccc2c(=O)n1Cc1ccco1)NCc1ccco1	-40.8%
CCOc1ccc(OCC)c(-c2c(=O)n(OCc3ccc(Cl)cc3)c3ccccc3[n+]2[O-])c1	11.9%
CNC(=O)/C(C#N)=C/c1cn(CC(=O)NCc2ccco2)c2ccccc12	19.1%
Nc1nc(N2CCOCC2)nc2ccccc12	-8.34%
COc1ccc(N2C(=O)C3CC=C(Cl)CC3C2=O)cc1 (stereo not shown)	15%
CCCCN=C(C)C1=C(O)CSC1=O	15.8%

SMILES	hERG current change (%, negative = inhibition) at 1uM
O=C(COc1ccc(Cl)cc1)Nc1ccc(N2CCN(C(=O)c3ccco3)CC2)cc1	-7.88%
O=C(CSc1nnc(Cc2cccs2)n1Cc1ccco1)Nc1ccc(Cl)cc1Cl	-4.66%
Cc1onc(-c2ccccc2)c1C(=O)NC(=S)NNC(=O)c1ccccc1O	11.9%
O=c1oc2ccccc2c(O)c1[C@H]1c2ccc(O)cc2Oc2c1c(=O)oc1ccccc21	8.39%
CCOc1ccc(NC(=S)N2CCn3c(nc4ccccc43)C2)cc1	-1.35%
COC(=O)Nc1ccc(S(=O)(=O)N2CCCC(C(=O)NC3CCCCC3)C2)cc1 (stereo not shown)	7.06%
COc1ccc(CNc2nc3c(c(=O)n(Cc4ccc(Br)cc4)c(=O)n3C)n2C)cc1	-10.5%
N#CC(C(=O)Nc1cccc(Cl)c1)=C1Nc2ccccc2N1	12.9%
O=C(C1CCCN1S(=O)(=O)c1cccc2cccnc12)N1CCn2c1nc1ccccc12 (stereo not shown)	-8.14%
Cc1cc(C)c(OCC(=O)N/N=C/c2ccco2)c(C)c1	5.53%
CC1(C)CC(CC(=O)O)(c2ccccc2)CCO1 (stereo not shown)	7.91%
Cc1ccc(S(=O)(=O)N2CCOC2C(Cl)(Cl)Cl)cc1 (stereo not shown)	8.91%
Cc1cc(-c2ccccc2)nc2c(Br)c(=O)[nH]n12	14.9%
O=C(C[n+]1ccccc1)Nc1ccccc1	13.1%
COc1ccc(/C=N/NC(=O)c2ccncc2)cc1COc1ccc(NC(C)=O)cc1	-1.38%
Cc1ccc2nc(-c3ccc(NC(=S)NC4CC(C)(C)NC(C)(C)C4)cc3)sc2c1	13.1%
Cc1oc(C)c(C(=O)NCCCC(=O)O)c1C(=O)NCCCC(=O)O	16.6%
CCCCOc1ccc(/C(O)=C2/C(=O)C(=O)N(Cc3cccnc3)C2c2ccncc2)c(C)c1 (stereo not shown)	1.71%
CCNc1nc(N)nc(-c2cc(Cl)ccc2O)n1	24.8%
O=C(C1CCCCCC1)N1CC[C@@H](N2CCC(O)CC2)[C@H](O)C1	13.2%
O=c1nc(-c2ccccc2)c2ccccc2[nH]1	5.89%
Cc1ccc(N(CC(O)CN2C(=O)NC(C)(C)C2=O)S(=O)(=O)c2ccc(C)cc2)cc1 (stereo not shown)	7.27%

SMILES	hERG current change (%, negative = inhibition) at 1uM
CCOC(=O)c1ccc(Nc2ncnc3ccc(C)cc23)cc1	8.61%
O=C(Cc1ccccc1)N1CCCC(c2nc(-c3ccc(S(=O)(=O)N4CCCC4)cc3)no2)C1 (stereo not shown)	2.29%
O=C(COC(=O)CCc1ccccc1)Nc1ncc(Cl)cc1Cl	-3.09%
Cc1ccc(NC(=S)Nc2cccc3cnccc23)c(C)c1	25.6%
CCCOC(=O)/C(C)=N\NC(=O)c1ccco1	13.6%
Nc1nc(N)nc(-c2cc([N+](=O)[O-])ccc2O)n1	-1.87%
Cc1cccc(NC(=O)COc2coc(CN3CCN(c4ccccc4)CC3)cc2=O)c1	9.66%
Cc1ccc(-n2c(SCC(=O)Nc3cccc(C)c3)nc3c(oc4ccccc43)c2=O)cc1	16.5%
O=c1oc2ccccc2c2c1nnn2CCO	14.4%
Cc1ccc(NC(=O)COC(=O)C2COc3ccccc3O2)cc1S(=O)(=O)N1CCOCC1 (stereo not shown)	14.9%
O=C(NC1CCCC1)C(c1ccccn1)N(C(=O)c1csnn1)c1ccccc1Br (stereo not shown)	1.68%
CCN1CCN(C(=O)NC2CCCCC2)CC1.O=C(O)C(=O)O	14.6%
CCN(CC)c1ccc(/C=N/N2C(=O)c3ccccc3C2=O)cc1	12.6%
CC1Cc2ccccc2N1C(=O)COC(=O)Cn1cnc2ccccc2c1=O (stereo not shown)	6.3%
COCCN=c1scc(-c2cccs2)n1/N=C(\C)c1ccco1	3.08%
COc1ccc(N(C(=O)COc2ccccc2)C2C=CS(=O)(=O)C2)cc1 (stereo not shown)	-3.91%
COc1cc(SC)ccc1C(=O)Nc1cccc(C2OCCCO2)c1	-2.97%
CCC(=O)Oc1ccc(C2N(C(=O)CC)CCN2S(=O)(=O)c2ccc(C)cc2)cc1OC (stereo not shown)	11.1%
CCOCCCn1c(NN)nc2ccccc2c1=O	16.5%
CC(=O)c1ccc(N2CCN(S(=O)(=O)c3c(C)[nH]c(C)c3C(=O)N3CCCCC3)CC2)cc1	11.8%
c1ccc(C(c2nnnn2C2CCCC2)N2CCCCCC2)nc1 (stereo not shown)	-7.56%
COc1cc(/C=N/NC(N)=S)cc(Br)c1OCc1ccccc1F	-3.88%
